These are yes or no findings as the source states them, for the method shown. Binding seen in cells or lysates may run through a third protein. Some results given as binding are weak or reduced against the parent protein; the word gives no strength. Tags and fused reporters may be left off the sequences shown.
What was measured:
[1] = biological target: T1, Zfp423 (pCDNA3-Myc-Zfp423) overexpressed in HEK293T cells (mouse) (UniProt Q80TS5); assay: co-IP; transfected HEK293T cells lysed in IPH buffer (20 mM Tris-HCl pH 7.5, 150 mM NaCl, 2 mM EDTA, 1% NP-40); 1 mg lysate with antibody overnight at 4°C, protein G magnetic beads, four washes, Western blot; Flag-Dmrta2 alone or with increasing doses of Zfp423
T1 sequence: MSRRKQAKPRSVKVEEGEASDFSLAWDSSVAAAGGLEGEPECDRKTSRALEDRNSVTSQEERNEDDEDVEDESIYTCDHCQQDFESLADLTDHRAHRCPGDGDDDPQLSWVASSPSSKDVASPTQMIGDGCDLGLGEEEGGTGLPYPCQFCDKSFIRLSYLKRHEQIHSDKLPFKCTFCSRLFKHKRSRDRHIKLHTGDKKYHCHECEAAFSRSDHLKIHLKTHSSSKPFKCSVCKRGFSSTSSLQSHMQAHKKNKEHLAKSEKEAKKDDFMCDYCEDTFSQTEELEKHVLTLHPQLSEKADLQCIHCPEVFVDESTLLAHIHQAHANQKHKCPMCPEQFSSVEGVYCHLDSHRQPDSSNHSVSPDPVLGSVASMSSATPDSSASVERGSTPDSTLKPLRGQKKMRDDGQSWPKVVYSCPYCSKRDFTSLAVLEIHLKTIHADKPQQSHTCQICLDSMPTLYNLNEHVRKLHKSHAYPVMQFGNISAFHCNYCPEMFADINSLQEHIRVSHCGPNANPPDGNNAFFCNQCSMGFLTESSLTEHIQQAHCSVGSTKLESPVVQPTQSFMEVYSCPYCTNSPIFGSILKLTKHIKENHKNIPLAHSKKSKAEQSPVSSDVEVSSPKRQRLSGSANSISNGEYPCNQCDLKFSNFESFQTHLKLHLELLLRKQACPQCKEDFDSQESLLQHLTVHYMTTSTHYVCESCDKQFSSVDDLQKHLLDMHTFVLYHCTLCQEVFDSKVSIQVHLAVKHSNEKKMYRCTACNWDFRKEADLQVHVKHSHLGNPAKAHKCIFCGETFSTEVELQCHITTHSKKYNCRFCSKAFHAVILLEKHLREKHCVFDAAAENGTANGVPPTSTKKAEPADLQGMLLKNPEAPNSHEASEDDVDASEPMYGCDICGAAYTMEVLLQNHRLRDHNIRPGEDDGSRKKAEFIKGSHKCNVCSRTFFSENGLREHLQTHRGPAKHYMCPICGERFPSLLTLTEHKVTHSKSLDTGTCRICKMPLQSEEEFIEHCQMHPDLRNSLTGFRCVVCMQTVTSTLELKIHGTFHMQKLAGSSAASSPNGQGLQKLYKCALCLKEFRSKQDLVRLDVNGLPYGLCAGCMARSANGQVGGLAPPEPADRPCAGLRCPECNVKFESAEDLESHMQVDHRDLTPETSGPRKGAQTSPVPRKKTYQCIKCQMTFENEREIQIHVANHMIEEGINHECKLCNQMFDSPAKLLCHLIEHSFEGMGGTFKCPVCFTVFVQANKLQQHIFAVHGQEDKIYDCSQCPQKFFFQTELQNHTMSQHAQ

Amino acid sequences for entries named in this document (tags omitted).
UniProt Q80WT2: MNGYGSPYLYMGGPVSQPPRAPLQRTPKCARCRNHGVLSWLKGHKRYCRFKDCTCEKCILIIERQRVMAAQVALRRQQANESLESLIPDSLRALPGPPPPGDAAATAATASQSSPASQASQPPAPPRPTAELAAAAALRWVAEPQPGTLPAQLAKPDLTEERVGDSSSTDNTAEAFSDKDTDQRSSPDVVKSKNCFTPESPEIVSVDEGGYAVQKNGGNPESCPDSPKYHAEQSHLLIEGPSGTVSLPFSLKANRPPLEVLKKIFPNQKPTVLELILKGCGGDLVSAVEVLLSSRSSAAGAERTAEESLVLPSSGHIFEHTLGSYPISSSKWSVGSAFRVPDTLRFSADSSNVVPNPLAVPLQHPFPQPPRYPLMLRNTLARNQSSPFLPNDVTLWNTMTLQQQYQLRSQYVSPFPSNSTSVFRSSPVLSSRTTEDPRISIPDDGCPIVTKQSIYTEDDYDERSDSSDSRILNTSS
UniProt Q13547: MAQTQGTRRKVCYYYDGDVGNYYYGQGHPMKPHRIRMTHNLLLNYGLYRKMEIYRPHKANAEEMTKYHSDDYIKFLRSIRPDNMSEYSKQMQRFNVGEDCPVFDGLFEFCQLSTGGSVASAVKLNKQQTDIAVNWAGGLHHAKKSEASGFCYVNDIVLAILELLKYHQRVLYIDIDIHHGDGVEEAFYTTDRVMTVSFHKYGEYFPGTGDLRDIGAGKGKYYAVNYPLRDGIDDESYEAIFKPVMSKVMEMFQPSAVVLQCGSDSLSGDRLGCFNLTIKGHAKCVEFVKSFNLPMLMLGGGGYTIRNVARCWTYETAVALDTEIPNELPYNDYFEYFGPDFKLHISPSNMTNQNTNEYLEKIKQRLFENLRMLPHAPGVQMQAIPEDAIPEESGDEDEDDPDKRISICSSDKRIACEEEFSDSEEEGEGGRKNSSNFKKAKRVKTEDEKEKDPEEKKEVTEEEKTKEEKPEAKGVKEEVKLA
UniProt Q92769: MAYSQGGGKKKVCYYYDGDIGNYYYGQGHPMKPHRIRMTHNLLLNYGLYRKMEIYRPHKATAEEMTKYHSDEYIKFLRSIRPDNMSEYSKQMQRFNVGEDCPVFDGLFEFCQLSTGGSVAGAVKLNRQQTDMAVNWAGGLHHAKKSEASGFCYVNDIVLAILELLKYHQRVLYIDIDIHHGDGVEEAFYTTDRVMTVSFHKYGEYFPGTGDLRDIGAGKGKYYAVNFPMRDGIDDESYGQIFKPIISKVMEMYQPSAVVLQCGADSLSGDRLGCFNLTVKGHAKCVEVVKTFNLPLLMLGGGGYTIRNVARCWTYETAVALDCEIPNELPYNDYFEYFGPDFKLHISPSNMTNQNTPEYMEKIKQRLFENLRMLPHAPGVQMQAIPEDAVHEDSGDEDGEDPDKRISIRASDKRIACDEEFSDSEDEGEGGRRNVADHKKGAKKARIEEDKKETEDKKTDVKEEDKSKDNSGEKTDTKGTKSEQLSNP

[2] = biological target: Flag-Dmrta2 (pCS2-Flag-mDmrta2) (mouse) (UniProt A2A9A2); assay: as above
[3] = biological target: T2, Flag-Dmrta2ΔDM (pCS2 Flag mDmrta2ΔDM) (mouse) (UniProt A2A9A2); assay: as above
T2 sequence: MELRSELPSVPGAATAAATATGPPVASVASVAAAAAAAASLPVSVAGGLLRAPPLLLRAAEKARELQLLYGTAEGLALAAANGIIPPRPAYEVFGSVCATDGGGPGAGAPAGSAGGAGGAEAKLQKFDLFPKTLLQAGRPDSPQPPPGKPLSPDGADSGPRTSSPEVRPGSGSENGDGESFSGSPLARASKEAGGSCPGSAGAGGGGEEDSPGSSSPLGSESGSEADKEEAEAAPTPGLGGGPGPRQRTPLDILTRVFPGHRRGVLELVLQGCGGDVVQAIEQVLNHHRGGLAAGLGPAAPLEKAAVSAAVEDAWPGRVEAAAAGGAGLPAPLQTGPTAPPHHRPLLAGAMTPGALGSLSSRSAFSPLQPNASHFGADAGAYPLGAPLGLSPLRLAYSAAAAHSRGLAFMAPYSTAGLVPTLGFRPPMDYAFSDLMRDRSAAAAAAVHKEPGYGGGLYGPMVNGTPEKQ

GST-Dmrt3 (mouse) = GST-Dmrt3 (mouse) (UniProt Q80WT2); assay: pull-down; GST fusion proteins on glutathione-agarose beads incubated with in vitro translated Myc-Zfp423 in 20 mM Tris pH 7.4, 0.1 M NaCl, 1 mM EDTA, 10% glycerol, 0.25% Igepal, 1 mM DTT, 1% milk, 2 h at RT; Western blot; only the target purified
GST-Dmrta2 (mouse) = GST-Dmrta2 (mouse) (UniProt A2A9A2); assay: as above
GST-Dmrta2 DM (mouse) = GST-Dmrta2 DM (mouse) (UniProt A2A9A2); assay: as above

## Flag-Dmrta2 (pCS2-Flag-mDmrta2) (from UniProt A2A9A2 1-531)
[1]
  binding: binds

## HDAC1 (endogenous, HEK293T) (from UniProt Q13547 1-482) (enzyme)
[2]
  binding: binds

## HDAC2 (endogenous, HEK293T) (from UniProt Q92769 1-488) (enzyme)
[2]
  binding: binds

B1: Zfp423 (pCDNA3-Myc-Zfp423) overexpressed in HEK293T cells (protein, UniProt Q80TS5 1-1292)
chain: MSRRKQAKPRSVKVEEGEASDFSLAWDSSVAAAGGLEGEPECDRKTSRALEDRNSVTSQEERNEDDEDVEDESIYTCDHCQQDFESLADLTDHRAHRCPGDGDDDPQLSWVASSPSSKDVASPTQMIGDGCDLGLGEEEGGTGLPYPCQFCDKSFIRLSYLKRHEQIHSDKLPFKCTFCSRLFKHKRSRDRHIKLHTGDKKYHCHECEAAFSRSDHLKIHLKTHSSSKPFKCSVCKRGFSSTSSLQSHMQAHKKNKEHLAKSEKEAKKDDFMCDYCEDTFSQTEELEKHVLTLHPQLSEKADLQCIHCPEVFVDESTLLAHIHQAHANQKHKCPMCPEQFSSVEGVYCHLDSHRQPDSSNHSVSPDPVLGSVASMSSATPDSSASVERGSTPDSTLKPLRGQKKMRDDGQSWPKVVYSCPYCSKRDFTSLAVLEIHLKTIHADKPQQSHTCQICLDSMPTLYNLNEHVRKLHKSHAYPVMQFGNISAFHCNYCPEMFADINSLQEHIRVSHCGPNANPPDGNNAFFCNQCSMGFLTESSLTEHIQQAHCSVGSTKLESPVVQPTQSFMEVYSCPYCTNSPIFGSILKLTKHIKENHKNIPLAHSKKSKAEQSPVSSDVEVSSPKRQRLSGSANSISNGEYPCNQCDLKFSNFESFQTHLKLHLELLLRKQACPQCKEDFDSQESLLQHLTVHYMTTSTHYVCESCDKQFSSVDDLQKHLLDMHTFVLYHCTLCQEVFDSKVSIQVHLAVKHSNEKKMYRCTACNWDFRKEADLQVHVKHSHLGNPAKAHKCIFCGETFSTEVELQCHITTHSKKYNCRFCSKAFHAVILLEKHLREKHCVFDAAAENGTANGVPPTSTKKAEPADLQGMLLKNPEAPNSHEASEDDVDASEPMYGCDICGAAYTMEVLLQNHRLRDHNIRPGEDDGSRKKAEFIKGSHKCNVCSRTFFSENGLREHLQTHRGPAKHYMCPICGERFPSLLTLTEHKVTHSKSLDTGTCRICKMPLQSEEEFIEHCQMHPDLRNSLTGFRCVVCMQTVTSTLELKIHGTFHMQKLAGSSAASSPNGQGLQKLYKCALCLKEFRSKQDLVRLDVNGLPYGLCAGCMARSANGQVGGLAPPEPADRPCAGLRCPECNVKFESAEDLESHMQVDHRDLTPETSGPRKGAQTSPVPRKKTYQCIKCQMTFENEREIQIHVANHMIEEGINHECKLCNQMFDSPAKLLCHLIEHSFEGMGGTFKCPVCFTVFVQANKLQQHIFAVHGQEDKIYDCSQCPQKFFFQTELQNHTMSQHAQ
[2]
  binding: binds
[3]
  binding: no binding

B2: Full-length mouse Myc-tagged Zfp423 synthesized in vitro (protein, UniProt Q80TS5 1-1292)
chain: MSRRKQAKPRSVKVEEGEASDFSLAWDSSVAAAGGLEGEPECDRKTSRALEDRNSVTSQEERNEDDEDVEDESIYTCDHCQQDFESLADLTDHRAHRCPGDGDDDPQLSWVASSPSSKDVASPTQMIGDGCDLGLGEEEGGTGLPYPCQFCDKSFIRLSYLKRHEQIHSDKLPFKCTFCSRLFKHKRSRDRHIKLHTGDKKYHCHECEAAFSRSDHLKIHLKTHSSSKPFKCSVCKRGFSSTSSLQSHMQAHKKNKEHLAKSEKEAKKDDFMCDYCEDTFSQTEELEKHVLTLHPQLSEKADLQCIHCPEVFVDESTLLAHIHQAHANQKHKCPMCPEQFSSVEGVYCHLDSHRQPDSSNHSVSPDPVLGSVASMSSATPDSSASVERGSTPDSTLKPLRGQKKMRDDGQSWPKVVYSCPYCSKRDFTSLAVLEIHLKTIHADKPQQSHTCQICLDSMPTLYNLNEHVRKLHKSHAYPVMQFGNISAFHCNYCPEMFADINSLQEHIRVSHCGPNANPPDGNNAFFCNQCSMGFLTESSLTEHIQQAHCSVGSTKLESPVVQPTQSFMEVYSCPYCTNSPIFGSILKLTKHIKENHKNIPLAHSKKSKAEQSPVSSDVEVSSPKRQRLSGSANSISNGEYPCNQCDLKFSNFESFQTHLKLHLELLLRKQACPQCKEDFDSQESLLQHLTVHYMTTSTHYVCESCDKQFSSVDDLQKHLLDMHTFVLYHCTLCQEVFDSKVSIQVHLAVKHSNEKKMYRCTACNWDFRKEADLQVHVKHSHLGNPAKAHKCIFCGETFSTEVELQCHITTHSKKYNCRFCSKAFHAVILLEKHLREKHCVFDAAAENGTANGVPPTSTKKAEPADLQGMLLKNPEAPNSHEASEDDVDASEPMYGCDICGAAYTMEVLLQNHRLRDHNIRPGEDDGSRKKAEFIKGSHKCNVCSRTFFSENGLREHLQTHRGPAKHYMCPICGERFPSLLTLTEHKVTHSKSLDTGTCRICKMPLQSEEEFIEHCQMHPDLRNSLTGFRCVVCMQTVTSTLELKIHGTFHMQKLAGSSAASSPNGQGLQKLYKCALCLKEFRSKQDLVRLDVNGLPYGLCAGCMARSANGQVGGLAPPEPADRPCAGLRCPECNVKFESAEDLESHMQVDHRDLTPETSGPRKGAQTSPVPRKKTYQCIKCQMTFENEREIQIHVANHMIEEGINHECKLCNQMFDSPAKLLCHLIEHSFEGMGGTFKCPVCFTVFVQANKLQQHIFAVHGQEDKIYDCSQCPQKFFFQTELQNHTMSQHAQ
GST-Dmrt3 (mouse)
  binding: binds
GST-Dmrta2 (mouse)
  binding: binds
GST-Dmrta2 DM (mouse)
  binding: binds

— paper PMC12186615
